# Reference: a collection of fitness landscapes (doi:10.1016/j.celrep.2020.107928)
# Over roughly 81,000 sequences, “one-hybrid fitness for binding NBS DNA” has its median near -0.1; the highest 2% begin near 0.36. This is one part of the list.
# B1: Caulobacter ParB omega fusion; a variant is named by its letters at X, in order, B8GW30 (parent)
# chain: MESVVVGEPGMSEGRRGLGRGLSALLGEVDAAPAQAPGEQLGGSREAPIEILQRNPDQPRRTFREEDLEDLSNSIREKGVLQPILVRPSPDTAGEYQIVAGERAWRAAQRAGLKTVPIMVRELDDLAVLEIGIIENVQRADLNVLEEALSYKVLMEKFERTQENIAQTIGKSXSHVANXMRLLXLPDEVQSYLVSGELTAXHARAIAAAADPVALAKQIIEGGLSVRETEALARKAPNLSAGKSKGGRPPRVKDTDTQALESDLSSVLGLDVSIDHRGSTGTLTITYATLEQLDDLCNRLTRGI
# Variants of: B1
# Experiment: one-hybrid fitness for binding NBS DNA (the Noc-binding site; scaled: cognate 1, non-cognate 0); higher = stronger binding
# Conditions: with NBS DNA site
# Outline: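 In E. coli USO, a HIS3 reporter with its site placed 19 bp from the promoter was used to select Caulobacter ParB variants randomised at four specificity codons. Growth lasted 48 hours at 37°C on histidine-free M9 containing 0.1 mM IPTG and 5 mM 3-AT. Fitness was taken as the log change in variant-to-wild-type read ratio from Illumina sequencing of pre- and post-selection plasmids, rescaled between the non-cognate and cognate sites.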
row,Variant,one-hybrid fitness for binding NBS DNA
1,PAGQ,≤ 0.2
2,ERPG,≤ 0.2
3,IDKG,≤ 0.2
4,QPPT,≤ 0.2
5,SHLP,≤ 0.2
6,WAPK,≤ 0.2
7,NLPK,≤ 0.2
8,QPQR,≤ 0.2
9,TFNP,≤ 0.2
10,ILRI,≤ 0.2
11,RIGQ,≤ 0.2
12,GALV,≤ 0.2
13,TTPD,≤ 0.2
14,VKRG,≤ 0.2
15,VQEC,≤ 0.2
16,NLPW,≤ 0.2
17,SQKC,≤ 0.2
18,NDDI,≤ 0.2
19,CPTG,≤ 0.2
20,CRSW,≤ 0.2
21,WNNC,≤ 0.2
22,GMRV,≤ 0.2
23,RIMH,≤ 0.2
24,AETE,≤ 0.2
25,NMTF,≤ 0.2

row,Variant,one-hybrid fitness for binding NBS DNA
1,GPQM,≤ 0.2
2,RYIQ,≤ 0.2
3,CFRS,≤ 0.2
4,HYQN,≤ 0.2
5,RTWY,≤ 0.2
6,MIVG,≤ 0.2
7,HCYT,≤ 0.2
8,PDGS,≤ 0.2
9,RTWA,≤ 0.2
10,IEKR,≤ 0.2
11,PNDK,≤ 0.2
12,QTKS,0.783
13,PAQA,≤ 0.2
14,MRKS,≤ 0.2
15,LYEV,≤ 0.2
16,MSHR,≤ 0.2
17,NTME,≤ 0.2
18,AGDG,≤ 0.2
19,LLPC,≤ 0.2
20,NRAR,≤ 0.2
21,WRDS,≤ 0.2
22,HDPG,≤ 0.2
23,TLLG,≤ 0.2
24,VTDS,≤ 0.2
25,EIPR,≤ 0.2

row,Variant,one-hybrid fitness for binding NBS DNA
1,WMFG,≤ 0.2
2,GMIV,≤ 0.2
3,MTDR,≤ 0.2
4,NVYA,≤ 0.2
5,PDEA,≤ 0.2
6,VDGS,≤ 0.2
7,DRKA,≤ 0.2
8,TMHA,≤ 0.2
9,HGHG,≤ 0.2
10,RITR,0.437
11,SRNY,≤ 0.2
12,CPKI,≤ 0.2
13,PLHL,≤ 0.2
14,DRFT,≤ 0.2
15,GAMT,≤ 0.2
16,QVCR,0.361
17,RVQL,≤ 0.2
18,ETNV,≤ 0.2
19,TQDM,≤ 0.2
20,GASN,≤ 0.2
21,NLLN,≤ 0.2
22,QCSA,0.302
23,QMNP,≤ 0.2
24,NNVM,≤ 0.2
25,SQTT,≤ 0.2

row,Variant,one-hybrid fitness for binding NBS DNA
1,ANPK,≤ 0.2
2,QCNK,≤ 0.2
3,RPMM,≤ 0.2
4,QIYY,≤ 0.2
5,PDHS,≤ 0.2
6,WLFE,≤ 0.2
7,VLKE,≤ 0.2
8,QFGT,≤ 0.2
9,DFMV,≤ 0.2
10,NARS,≤ 0.2
11,QIFC,≤ 0.2
12,QLCH,≤ 0.2
13,IVKG,≤ 0.2
14,DEAR,≤ 0.2
15,FKLC,≤ 0.2
16,RCDL,≤ 0.2
17,CTNL,≤ 0.2
18,LRGV,≤ 0.2
19,HCVT,≤ 0.2
20,DSIR,≤ 0.2
21,VIQL,≤ 0.2
22,QNMT,≤ 0.2
23,CCDT,≤ 0.2
24,RDYM,≤ 0.2
25,ETDC,≤ 0.2

row,Variant,one-hybrid fitness for binding NBS DNA
1,EIAQ,≤ 0.2
2,LDHD,≤ 0.2
3,QVAM,≤ 0.2
4,DVWC,≤ 0.2
5,QYRD,≤ 0.2
6,LVLA,≤ 0.2
7,RELG,≤ 0.2
8,LTVH,≤ 0.2
9,DCKG,≤ 0.2
10,QFVD,≤ 0.2
11,LEPA,≤ 0.2
12,AHDE,≤ 0.2
13,QFAH,≤ 0.2
14,ITLS,≤ 0.2
15,YCIT,≤ 0.2
16,RKAY,0.221
17,TDEQ,≤ 0.2
18,KQRA,≤ 0.2
19,QDPA,≤ 0.2
20,VVKS,≤ 0.2
21,QCEL,≤ 0.2
22,GTPQ,≤ 0.2
23,QHAA,≤ 0.2
24,TTRP,≤ 0.2
25,QCIC,≤ 0.2

row,Variant,one-hybrid fitness for binding NBS DNA
1,AHSQ,≤ 0.2
2,YWRR,≤ 0.2
3,TQHG,≤ 0.2
4,TFLE,≤ 0.2
5,KFYV,≤ 0.2
6,SLCQ,≤ 0.2
7,QPNC,≤ 0.2
8,AVWV,≤ 0.2
9,RYCW,≤ 0.2
10,INTG,≤ 0.2
11,HLRT,≤ 0.2
12,ANSF,≤ 0.2
13,RHIS,≤ 0.2
14,MIPN,≤ 0.2
15,GYNS,≤ 0.2
16,KFTS,≤ 0.2
17,MVTQ,≤ 0.2
18,SPLC,≤ 0.2
19,IIHG,≤ 0.2
20,RMGY,≤ 0.2
21,WRFL,≤ 0.2
22,EASR,≤ 0.2
23,RYLQ,≤ 0.2
24,QSFM,≤ 0.2
25,DTCC,≤ 0.2

row,Variant,one-hybrid fitness for binding NBS DNA
1,FGIS,≤ 0.2
2,TPIF,≤ 0.2
3,ERRA,≤ 0.2
4,QDAN,≤ 0.2
5,YNTR,≤ 0.2
6,PGAR,≤ 0.2
7,MQIS,≤ 0.2
8,LQRF,≤ 0.2
9,RCWD,≤ 0.2
10,IKWS,≤ 0.2
11,YPHS,≤ 0.2
12,KRGQ,≤ 0.2
13,RLVN,≤ 0.2
14,ERMC,≤ 0.2
15,CPPC,≤ 0.2
16,GEMI,≤ 0.2
17,IVQV,≤ 0.2
18,KMFR,≤ 0.2
19,AWTA,≤ 0.2
20,VLRK,≤ 0.2
21,LNET,≤ 0.2
22,RHPW,≤ 0.2
23,ATHL,≤ 0.2
24,KWPN,≤ 0.2
25,NYEV,≤ 0.2

row,Variant,one-hybrid fitness for binding NBS DNA
1,RSFQ,≤ 0.2
2,RWQG,≤ 0.2
3,QQYK,≤ 0.2
4,PRMF,≤ 0.2
5,CTSE,≤ 0.2
6,GYQV,≤ 0.2
7,HRAE,≤ 0.2
8,DLAE,≤ 0.2
9,HKLN,≤ 0.2
10,DSNN,≤ 0.2
11,KRSP,≤ 0.2
12,DSCR,≤ 0.2
13,SKNW,≤ 0.2
14,FNSV,≤ 0.2
15,AAGG,≤ 0.2
16,PDSP,≤ 0.2
17,VAGR,≤ 0.2
18,HAYR,≤ 0.2
19,SWQR,≤ 0.2
20,AYCR,≤ 0.2
